# This is one part of the list.
# B1: Alpha-agglutinin (Saccharomyces cerevisiae) (protein)
# chain: MFTFLKIILWLFSLALASAININDITFSNLEITPLTANKQPDQGWTATFDFSIADASSIREGDEFTLSMPHVYRIKLLNSSQTATISLADGTEAFKCYVSQQAAYLYENTTFTCTAQNDLSSYNTIDGSITFSLNFSDGGSSYEYELENAKFFKSGPMLVKLGNQMSDVVNFDPAAFTENVFHSGRSTGYGSFESYHLGMYCPNGYFLGGTEKIDYDSSNNNVDLDCSSVQVYSSNDFNDWWFPQSYNDTNADVTCFGSNLWITLDEKLYDGEMLWVNALQSLPANVNTIDHALEFQYTCLDTIANTTYATQFSTTREFIVYQGR
# Tests used:
# Test in all cases: glycan array binding signal (z-score within array); higher = stronger binding
# Conditions in all cases: glycan notation: IUPAC condensed, linker removed
# [1] = target: Gal(a1-4)GlcNAc
# Summary of the method: (§1)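 Columns mapping to the same glycan were averaged after glycan names were converted to IUPAC-condensed notation. The data come from 3228 arrays in the Consortium for Functional Glycomics database, limited to those with an available protein sequence. Binding is reported as a within-array Z-score averaged across arrays of one protein sequence and across linkers.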
# [2] = target: Gal(a1-6)Glc
# Summary of the method: as §1
# [3] = target: Gal(b1-2)Gal
# Summary of the method: as §1
# [4] = target: Gal(b1-3)Gal
# Summary of the method: as §1
# [5] = target: Gal(b1-3)GalNAc
# Summary of the method: as §1
# [6] = target: Gal(b1-3)GalNAc(b1-3)Gal(a1-4)Gal(b1-4)Glc
# Summary of the method: as §1
# [7] = target: Gal(b1-3)GalNAc(b1-3)Gal(b1-4)Glc
# Summary of the method: as §1
# [8] = target: Gal(b1-3)GalNAc(b1-3)Gal(b1-4)GlcNAc
# Summary of the method: as §1
# [9] = target: Gal(b1-3)GalNAc(b1-4)Gal(b1-4)Glc
# Summary of the method: as §1
# [10] = target: Gal(b1-3)GalNAc(b1-4)[Neu5Ac(a2-3)]Gal(b1-4)Glc
# Summary of the method: as §1
# [11] = target: Gal(b1-3)[Fuc(a1-4)]GlcNAc
# Summary of the method: as §1
# [12] = target: Gal(b1-3)[Fuc(a1-4)]GlcNAc(b1-3)Gal(b1-4)GlcNAc
# Summary of the method: as §1
# [13] = target: Gal(b1-3)[Fuc(a1-4)]GlcNAc(b1-3)Gal(b1-4)[Fuc(a1-3)]GlcNAc
# Summary of the method: as §1
# [14] = target: Gal(b1-3)[GlcNAc(b1-6)]GalNAc
# Summary of the method: as §1
# [15] = target: Gal(b1-3)[GlcNAc(b1-6)]GlcNAc
# Summary of the method: as §1
# [16] = target: Gal(b1-3)[Neu5Ac(a2-6)]GalNAc
# Summary of the method: as §1
# [17] = target: Gal(b1-3)[Neu5Ac(a2-6)]GlcNAc
# Summary of the method: as §1
# [18] = target: Gal(b1-3)[Neu5Ac(a2-6)]GlcNAc(a1-4)Gal(b1-4)Glc
# Summary of the method: as §1
# [19] = target: Gal(b1-3)[Neu5Ac(b2-6)]GlcNAc
# Summary of the method: as §1
# [20] = target: Gal(b1-4)GalNAc(a1-3)[Fuc(a1-2)]Gal(b1-4)GlcNAc
# Summary of the method: as §1
# [21] = target: Gal(b1-4)GalNAc(b1-3)[Fuc(a1-2)]Gal(b1-4)GlcNAc
# Summary of the method: as §1
# [22] = target: Gal(b1-4)Glc
# Summary of the method: as §1
# [23] = target: Gal(b1-4)Glc6S
# Summary of the method: as §1
# [24] = target: Gal(b1-4)GlcNAc
# Summary of the method: as §1
# [25] = target: Gal(b1-4)GlcNAc(b1-2)Man(a1-3)[Gal(b1-4)GlcNAc(b1-2)Man(a1-6)]Man(b1-4)GlcNAc(b1-4)GlcNAc
# Summary of the method: as §1
# [26] = target: Gal(b1-4)GlcNAc(b1-3)Gal(b1-4)Glc
# Summary of the method: as §1
# [27] = target: Gal(b1-4)GlcNAc(b1-3)Gal(b1-4)GlcNAc
# Summary of the method: as §1
# [28] = target: Gal(b1-4)GlcNAc(b1-3)Gal(b1-4)GlcNAc(b1-3)Gal(b1-4)GlcNAc
# Summary of the method: as §1
# [29] = target: Gal(b1-4)GlcNAc(b1-3)Gal(b1-4)[Fuc(a1-3)]GlcNAc(b1-3)Gal(b1-4)[Fuc(a1-3)]GlcNAc
# Summary of the method: as §1
# [30] = target: Gal(b1-4)GlcNAc(b1-3)GalNAc
# Summary of the method: as §1
# [31] = target: Gal(b1-4)GlcNAc(b1-3)[Gal(b1-4)GlcNAc(b1-6)]GalNAc
# Summary of the method: as §1
# [32] = target: Gal(b1-4)GlcNAc(b1-6)GalNAc
# Summary of the method: as §1
# [33] = target: Gal(b1-4)GlcNAc(b1-6)[Gal(b1-3)]GalNAc
# Summary of the method: as §1
# [34] = target: Gal(b1-4)GlcNAc(b1-6)[Gal(b1-3)]GlcNAc
# Summary of the method: as §1
# [35] = target: Gal3S(b1-3)GalNAc
# Summary of the method: as §1
# [36] = target: Gal3S(b1-3)GlcNAc
# Summary of the method: as §1
# [37] = target: Gal3S(b1-3)[Fuc(a1-4)]GlcNAc
# Summary of the method: as §1
# [38] = target: Gal3S(b1-4)Glc
# Summary of the method: as §1
# [39] = target: Gal3S(b1-4)Glc6S
# Summary of the method: as §1
# [40] = target: Gal3S(b1-4)GlcNAc
# Summary of the method: as §1
# [41] = target: Gal3S(b1-4)GlcNAc6S
# Summary of the method: as §1
# [42] = target: Gal3S6S(b1-4)GlcNAc
# Summary of the method: as §1
# [43] = target: Gal3S6S(b1-4)GlcNAc6S
# Summary of the method: as §1
# [44] = target: Gal4S(b1-4)GlcNAc
# Summary of the method: as §1
# [45] = target: Gal4S6S(b1-4)GlcNAc
# Summary of the method: as §1
binder,measurement,setting,value
B1,glycan array binding signal (z-score),[1],-0.029
same,glycan array binding signal (z-score),[2],0.966
same,glycan array binding signal (z-score),[3],-0.205
same,glycan array binding signal (z-score),[4],-0.217
same,glycan array binding signal (z-score),[5],-0.071
same,glycan array binding signal (z-score),[6],-0.093
same,glycan array binding signal (z-score),[7],8.68
same,glycan array binding signal (z-score),[8],-0.257
same,glycan array binding signal (z-score),[9],-0.045
same,glycan array binding signal (z-score),[10],-0.209
same,glycan array binding signal (z-score),[11],-0.231
same,glycan array binding signal (z-score),[12],-0.23
same,glycan array binding signal (z-score),[13],-0.247
same,glycan array binding signal (z-score),[14],-0.255
same,glycan array binding signal (z-score),[15],-0.008
same,glycan array binding signal (z-score),[16],-0.258
same,glycan array binding signal (z-score),[17],-0.071
same,glycan array binding signal (z-score),[18],0.605
same,glycan array binding signal (z-score),[19],0.11
same,glycan array binding signal (z-score),[20],0.014
same,glycan array binding signal (z-score),[21],0.039
same,glycan array binding signal (z-score),[22],0.042
same,glycan array binding signal (z-score),[23],0.707
same,glycan array binding signal (z-score),[24],-0.251
same,glycan array binding signal (z-score),[25],-0.203
same,glycan array binding signal (z-score),[26],3.24
same,glycan array binding signal (z-score),[27],-0.269
same,glycan array binding signal (z-score),[28],-0.257
same,glycan array binding signal (z-score),[29],-0.234
same,glycan array binding signal (z-score),[30],-0.22
same,glycan array binding signal (z-score),[31],-0.227
same,glycan array binding signal (z-score),[32],0.136
same,glycan array binding signal (z-score),[33],-0.271
same,glycan array binding signal (z-score),[34],-0.04
same,glycan array binding signal (z-score),[35],-0.123
same,glycan array binding signal (z-score),[36],-0.148
same,glycan array binding signal (z-score),[37],-0.075
same,glycan array binding signal (z-score),[38],-0.233
same,glycan array binding signal (z-score),[39],0.133
same,glycan array binding signal (z-score),[40],-0.188
same,glycan array binding signal (z-score),[41],-0.09
same,glycan array binding signal (z-score),[42],0.002
same,glycan array binding signal (z-score),[43],0.253
same,glycan array binding signal (z-score),[44],-0.149
same,glycan array binding signal (z-score),[45],0.166
